According to a compilation of properties of binary mixtures (doi:10.1039/c5cp02799c):
Some of these densities may be calculated back from excess volumes.

Experiment: xn = mol fraction of the nth substance listed
Details: 101.3 kPa

## CCCCC[P+](CC)(CC)CC.O=S(=O)([N-]S(=O)(=O)C(F)(F)F)C(F)(F)F + O=S(=O)([N-]S(=O)(=O)C(F)(F)F)C(F)(F)F.[Li+]
298 K, x2 = 0.25
  mass density: 1380 kg/m3
298.2 K, x2 = 0.39
  mass density: 1450 kg/m3
300.1 K, x2 = 0.25
  mass density: 1378 kg/m3
300.2 K, x2 = 0.39
  mass density: 1448 kg/m3
306 K, x2 = 0.25
  mass density: 1373 kg/m3
306.2 K, x2 = 0.39
  mass density: 1442 kg/m3
312.1 K, x2 = 0.25
  mass density: 1367 kg/m3
312.1 K, x2 = 0.39
  mass density: 1436 kg/m3
318 K, x2 = 0.25
  mass density: 1362 kg/m3
318.2 K, x2 = 0.39
  mass density: 1430 kg/m3
324.1 K, x2 = 0.25
  mass density: 1356 kg/m3
330 K, x2 = 0.25
  mass density: 1350 kg/m3
336 K, x2 = 0.25
  mass density: 1346 kg/m3
336.1 K, x2 = 0.39
  mass density: 1412 kg/m3
341 K, x2 = 0.25
  mass density: 1341 kg/m3
341.2 K, x2 = 0.39
  mass density: 1407 kg/m3
348 K, x2 = 0.25
  mass density: 1335 kg/m3
348.1 K, x2 = 0.39
  mass density: 1400 kg/m3
355 K, x2 = 0.25
  mass density: 1328 kg/m3
361 K, x2 = 0.25
  mass density: 1323 kg/m3
361.1 K, x2 = 0.39
  mass density: 1388 kg/m3
374 K, x2 = 0.25
  mass density: 1312 kg/m3

## CC[P+](CC)(CC)CCOC.O=S(=O)([N-]S(=O)(=O)C(F)(F)F)C(F)(F)F + O=S(=O)([N-]S(=O)(=O)C(F)(F)F)C(F)(F)F.[Li+]
297.8 K, x2 = 0.25
  mass density: 1449 kg/m3
297.9 K, x2 = 0.39
  mass density: 1502 kg/m3
299.9 K, x2 = 0.39
  mass density: 1500 kg/m3
300 K, x2 = 0.25
  mass density: 1446 kg/m3
305.9 K, x2 = 0.25
  mass density: 1441 kg/m3
305.9 K, x2 = 0.39
  mass density: 1494 kg/m3
311.9 K, x2 = 0.25
  mass density: 1434 kg/m3
311.9 K, x2 = 0.39
  mass density: 1488 kg/m3
317.9 K, x2 = 0.39
  mass density: 1481 kg/m3
323.9 K, x2 = 0.39
  mass density: 1475 kg/m3
324 K, x2 = 0.25
  mass density: 1423 kg/m3
329.9 K, x2 = 0.25
  mass density: 1418 kg/m3
329.9 K, x2 = 0.39
  mass density: 1469 kg/m3
335.8 K, x2 = 0.39
  mass density: 1464 kg/m3
335.9 K, x2 = 0.25
  mass density: 1412 kg/m3
340.9 K, x2 = 0.39
  mass density: 1459 kg/m3
347.8 K, x2 = 0.39
  mass density: 1451 kg/m3
354.8 K, x2 = 0.39
  mass density: 1445 kg/m3
360.7 K, x2 = 0.39
  mass density: 1439 kg/m3
360.8 K, x2 = 0.25
  mass density: 1389 kg/m3
373.7 K, x2 = 0.39
  mass density: 1426 kg/m3
